# According to PubChem BioAssay AID1671188 (National Center for Advancing Translational Sciences (NCATS), 2021):
# Several values for one entry are separate records, joined by “and”; a condition that tells them apart may be missing. Identical values can stand only once. Hit rate of the full screen: of about 100,000 compounds, about 250 (0.25%) were called active. The inconclusive results got no clear call from the source; some entries with a clear call stand among them for comparison. Calls come from the whole dose curve; as a rule, active = well fitted inhibition curve with a large enough effect; inconclusive = small, poorly fitted or top-dose-only effect; inactive = flat fitted curve, though single readings scatter. Potencies beside an inconclusive call are fits to weak or partial responses and may not hold up. The source holds several records for some structures; these can differ, active in one and inactive in another.
# Biological target: Alanine aminotransferase 2 (Homo sapiens) (UniProt Q8TD30)
# Test: Primary qHTS assay for inhibitors of Glutamate pyruvate transaminase 2 (GPT2); note: nearly all actives have a fitted effect of over 60% in size
# Details: Recombinant GPT2, coupled pyruvate oxidase/HRP Amplex Red fluorescence; series mostly up to 57.7 µM
# Procedure, shortened: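 Inhibition is scored from Amplex Red fluorescence generated when pyruvate oxidase and HRP act on pyruvate released by GPT2. Reactions contain 10ng/uL enzyme, 250uM a-KG and 2mM L-alanine and run 30 min at room temperature.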
# Potency is the fitted concentration of half-maximal effect; tags give direction and shape of the fitted curve.
row,SMILES,Potency
1,COc1cc2c(cc1-c1ccc(N3CCN(C)CC3)nc1)NC(=O)C21CCN(C(C)=O)CC1,"inconclusive: 7.08 µM [inhibitor, single point]"
2,COc1ccc(NC(=O)NC[C@H]2C[C@@H]3CCN2C[C@@H]3c2cc(C3CCCC3)nn2C)cc1,inactive
3,CCNC(=O)NC[C@H]1C[C@@H]2CCN1C[C@@H]2c1cc(-c2ccc(N(C)C)cc2)nc(C)n1,inactive
4,CCCN1CCO[C@@H]2c3cc(O)ccc3OC[C@H]21,"inconclusive: 39.8 µM [inhibitor, partial curve, poor fit] and inconclusive: 35.5 µM [inhibitor, partial curve, poor fit]"
5,N[C@H]1[C@H](O)[C@@H](N2CCCCC2)[C@@H]2OC[C@H]1O2,"inconclusive: 3.16 µM [inhibitor, partial curve, poor fit]"
6,CSc1cccc(NC(=O)NC[C@H]2C[C@@H]3CCN2C[C@@H]3CN2CCC(Cc3ccccc3)CC2)c1,inactive
7,CCCCCCCCCC(CC)c1ccc(S(=O)(=O)O)cc1 (centres undefined),"inconclusive: 14.1 µM [inhibitor, full curve]"
8,COc1cc(C)[nH]c(=O)c1CNC(=O)c1c(C)n([C@H](C)C2CCOCC2)c2ccccc12,inactive
9,COCC1CN(Cc2ccncc2)CC12CCNCC2 (centres undefined),"inconclusive: 8.91 µM [inhibitor, partial curve, poor fit]"
10,O=C(c1ccc2c(c1)OCO2)N1[C@H]2CC[C@@H]1c1cnc(-c3ccccc3)nc1C2,"inconclusive: 35.5 µM [inhibitor, single point]"
11,Cc1ccc(S(=O)(=O)NC[C@H]2C[C@@H]3CCN2C[C@@H]3CN2CCN(c3ccccn3)CC2)cc1,"inconclusive: 3.16 µM [inhibitor, partial curve, poor fit]"
12,CC(C)CN1Cc2ccccc2-n2ccnc2C12CCN(C(=O)c1ccn[nH]1)CC2,inactive
13,COc1ccc(C(c2ccc(OC)cc2)C(Cl)(Cl)Cl)cc1,"inconclusive: 8.91 µM [inhibitor, full curve, poor fit]"
14,COc1cc2c(cc1OCc1ccc(Cl)cc1)N(Cc1ccccc1)CC21CCN(C(C)=O)CC1,"inconclusive: 10 µM [inhibitor, partial curve, poor fit]"
15,O=C(Nc1ccc2n(c1=O)C[C@H]1C[C@@H]2CN(C(=O)c2ccccn2)C1)c1ccc(F)cc1,"inconclusive: 35.5 µM [inhibitor, single point]"
16,CCCCOC(=O)N1C[C@H](C(=O)OCC)[C@H]2c3ccccc3N(C)C(=O)[C@]21C,"inconclusive: 8.91 µM [inhibitor, partial curve, poor fit]"
17,CNC(C)Cc1ccccc1OC (centres undefined),"inconclusive: 5.01 µM [inhibitor, single point]"
18,C#C[C@H]1CN2CC[C@H]1C[C@@H]2CNCc1cccc(Cl)c1,inactive
19,NC(=O)c1ncn2c1CN=C(c1ccccc1Br)c1cc(F)ccc1-2,"inconclusive: 39.8 µM [inhibitor, single point]"
20,CN1CC[C@]23c4c5ccc(O)c4O[C@H]2[C@@H](O)CC[C@H]3[C@H]1C5,"inconclusive: 3.98 µM [inhibitor, full curve, poor fit]"

row,SMILES,Potency
1,Cc1ccccc1-n1c(Cn2ncc3c(N)ncnc32)nc2cccc(C)c2c1=O,"inconclusive: 15.3 µM [inhibitor, single point]"
2,CC(C)N1CC2CCC(C1)N2CC1CCCC1,"inconclusive: 10 µM [inhibitor, partial curve, poor fit]"
3,Cc1ccc(S(=O)(=O)NC[C@H]2C[C@@H]3CCN2C[C@@H]3CN2CCN(c3ncccn3)CC2)cc1,"inconclusive: 10 µM [inhibitor, partial curve, poor fit]"
4,CC[C@H]1CN2CC[C@H]1C[C@@H]2CNC(=S)Nc1ccc(N(C)C)cc1,active: 8.91 µM
5,O=C(N1[C@H]2CC[C@@H]1c1cnc(-c3ccc(F)cc3)nc1C2)C1(c2ccccc2)CC1,"inconclusive: 31.6 µM [inhibitor, single point]"
6,COc1ccc(-c2cc([C@H]3CN4CC[C@H]3C[C@@H]4COC(=O)NC3CCCCC3)nc(C)n2)cc1,inactive
7,Cc1cccn2c(CC(=O)N3CCN(C)[C@@H]4CS(=O)(=O)C[C@@H]43)cnc12,"inconclusive: 8.91 µM [inhibitor, single point]"
8,O=C1Nc2ccccc2CC12CCN2Cc1cccnc1 (centres undefined),"inconclusive: 5.62 µM [inhibitor, single point]"
9,NC1CCc2cc(O)c(O)cc2C1 (centres undefined),"inconclusive: 7.08 µM [inhibitor, full curve]"
10,O=C(Nc1ccc2n(c1=O)C[C@H]1C[C@@H]2CN(CC2CCCCC2)C1)C1CCCCC1,"inconclusive: 35.5 µM [inhibitor, single point]"
11,COc1ccc(-c2cc([C@H]3CN4CC[C@H]3C[C@@H]4CNC(=O)c3ccco3)n(C)n2)cc1,"inconclusive: 28.2 µM [inhibitor, partial curve, poor fit]"
12,CN(Cc1ccccc1)C[C@H]1CN2CC[C@H]1C[C@@H]2CNC(=S)Nc1ccc(N(C)C)cc1,"inconclusive: 8.91 µM [inhibitor, full curve, poor fit]"
13,CCc1cnc(N2CCC3(CC2)C(=O)Nc2cc(OCc4ccccc4)c(OC)cc23)nc1,"inconclusive: 14.1 µM [inhibitor, partial curve]"
14,COc1ccc(-c2cc([C@H]3CN4CC[C@H]3C[C@@H]4CNC(=O)NCc3ccccc3)n(C)n2)cc1,inactive
15,C#CCN(C)C[C@H]1CN2CC[C@H]1C[C@@H]2CNS(=O)(=O)c1ccc(C)cc1,inactive
16,CC(C)C(=O)N1CC[C@@H]2COCCN(Cc3cccnc3)[C@@H]2C1,inactive
17,COc1ccc(-c2cc([C@H]3CN4CC[C@H]3C[C@@H]4CNS(=O)(=O)c3ccccc3)n(C)n2)cc1,"inconclusive: 17.8 µM [inhibitor, partial curve]"
18,CCOC(=O)[C@H]1CN(C(=O)OCC(C)(C)C)[C@]2(C)C(=O)N(C)c3ccccc3[C@H]12,"inconclusive: 10 µM [inhibitor, single point]"
19,CC[C@H]1CN2CC[C@H]1C[C@@H]2CNC(=O)c1ccc(F)c(Cl)c1,"inconclusive: 10 µM [inhibitor, single point]"
20,CCCN1CC[C@@H](CO)N(C)c2nc(C)ccc2C1,"inconclusive: 63.1 µM [inhibitor, single point]"

row,SMILES,Potency
1,Cn1nc(C2CCCC2)cc1[C@H]1CN2CC[C@H]1C[C@@H]2CNS(=O)(=O)c1cccs1,"inconclusive: 56.2 µM [inhibitor, single point]"
2,CCCS(=O)(=O)Nc1ccc(=O)n2c1[C@@H]1C[C@@H](CN(S(=O)(=O)c3ccc(OC)cc3)C1)C2,"inconclusive: 3.55 µM [inhibitor, single point]"
3,CCOC(=O)[C@H]1CN(C(=O)CC2CCCC2)[C@]2(C)C(=O)N(CC3CC3)c3ccccc3[C@H]12,"inconclusive: 20 µM [inhibitor, single point]"
4,COc1ccc(S(=O)(=O)N2C[C@@H]3C[C@H](C2)c2c(-c4ccccc4F)ccc(=O)n2C3)cc1,"inconclusive: 39.8 µM [inhibitor, single point]"
5,COc1cc2c(cc1Oc1ccccc1)NC(=O)C21CCN(Cc2cccnc2)CC1,inactive
6,COc1cc2c(cc1OCc1ccccc1)NC(=O)C21CCN(Cc2nccs2)CC1,"inconclusive: 8.91 µM [inhibitor, single point]"
7,CCCCCCCCc1ccc(O)cc1,"inconclusive: 56.2 µM [inhibitor, single point]"
8,CCOC(=O)[C@H]1CN(C(=O)C2CCCC2)[C@]2(C)C(=O)N(CC3CC3)c3ccccc3[C@H]12,"inconclusive: 17.8 µM [inhibitor, single point]"
9,c1cnc2c(c1)NC1(CCCNC1)C(=NC1CCCC1)N2 (centres undefined),"inconclusive: 14.1 µM [inhibitor, partial curve]"
10,COc1cc2c(cc1Oc1ccccc1)NC(=O)C21CCN(C(=O)C2CCN(C)CC2)CC1,"inconclusive: 4.47 µM [inhibitor, single point]"
11,c1cncc(OC[C@@H]2CCN2)c1,"inconclusive: 39.8 µM [inhibitor, single point]"
12,O=[N+]([O-])c1ccnc(N2CC3CCC(C2)N3CC(F)(F)F)c1,"inconclusive: 0.891 µM [inhibitor, partial curve, poor fit]"
13,Cc1nc(-c2ccc(C(F)(F)F)cc2)cc([C@H]2CN3CC[C@H]2C[C@@H]3CNS(C)(=O)=O)n1,"inconclusive: 3.16 µM [inhibitor, single point]"
14,CCC(CC)c1cc([C@H]2CN3CC[C@H]2C[C@@H]3CNC(=O)C(C)(C)C)nc(-c2ccncc2)n1,inactive
15,C#C[C@H]1CN2CC[C@H]1C[C@@H]2CNS(=O)(=O)c1cccc(C#N)c1,"inconclusive: 7.94 µM [inhibitor, full curve, poor fit]"
16,COc1ccc2c(c[n+](C)c3c4cc5c(cc4ccc23)OCO5)c1OC,active: 10 µM
17,COc1cc2c(cc1Oc1cccc(N(C)C)c1)NC(=O)C21CCN(C(=O)c2cccnc2)CC1,"inconclusive: 6.31 µM [inhibitor, single point]"
18,CNc1ccc2oc(C[C@H]3O[C@@]4(CC[C@H]3C)O[C@H]([C@H](C)C(=O)c3ccc[nH]3)[C@H](C)C[C@H]4C)nc2c1C(=O)O,"inconclusive: 3.55 µM [inhibitor, full curve, poor fit]"
19,COc1ccc(C(=O)N2C[C@@H]3C[C@H](C2)c2c(-c4ccc(Cl)cc4)ccc(=O)n2C3)cc1,inactive
